Laboratory results taken from PubChem BioAssay AID1645886 (National Center for Advancing Translational Sciences (NCATS), 2021).
Several values for one entry are separate records, joined by “and”; a condition that tells them apart may be missing. Equal values may be shown once. About 260 (1.6%) of roughly 16,000 compounds were called active. Inconclusive results, whose numbers are uncertain, are shown with a selection of clear calls. Calls follow the shape of the dose curve; as a rule, active = well fitted inhibition curve with a large enough effect; inconclusive = small, poorly fitted or top-dose-only effect; inactive = no such curve, though single readings can be large or run the other way. Potencies of inconclusive entries are doubtful fits and often do not repeat.

Biological target: Rap guanine nucleotide exchange factor 4 (Homo sapiens) (UniProt Q8WZA2)
Test: Validation qHTS for antagonist of cAMP-regulated guanine nucleotide exchange factor 4 (EPAC2); also: nearly all actives have a fitted effect of over 40% in size
Conditions: EPAC2 Rap1B BODIPY-GDP exchange, fluorescence; series mostly up to 112 µM
Method in brief: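 Fluorescent exchange read-out: 100 nM EPAC2 with 250 nM RAP1B–BODIPY-GDP and 50 uM GDP; BODIPY-GDP release lowers fluorescence. Read at 480/540 nm every 5 min for 30 min at room temperature; normalized to 6.5 mM cAMP.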
Potency is read from the fitted curve at half-maximal effect; tags tell the direction and shape of the fitted curve.

UniProt Q8WZA2, sequence (Q8WZA2 whole entry, looked up): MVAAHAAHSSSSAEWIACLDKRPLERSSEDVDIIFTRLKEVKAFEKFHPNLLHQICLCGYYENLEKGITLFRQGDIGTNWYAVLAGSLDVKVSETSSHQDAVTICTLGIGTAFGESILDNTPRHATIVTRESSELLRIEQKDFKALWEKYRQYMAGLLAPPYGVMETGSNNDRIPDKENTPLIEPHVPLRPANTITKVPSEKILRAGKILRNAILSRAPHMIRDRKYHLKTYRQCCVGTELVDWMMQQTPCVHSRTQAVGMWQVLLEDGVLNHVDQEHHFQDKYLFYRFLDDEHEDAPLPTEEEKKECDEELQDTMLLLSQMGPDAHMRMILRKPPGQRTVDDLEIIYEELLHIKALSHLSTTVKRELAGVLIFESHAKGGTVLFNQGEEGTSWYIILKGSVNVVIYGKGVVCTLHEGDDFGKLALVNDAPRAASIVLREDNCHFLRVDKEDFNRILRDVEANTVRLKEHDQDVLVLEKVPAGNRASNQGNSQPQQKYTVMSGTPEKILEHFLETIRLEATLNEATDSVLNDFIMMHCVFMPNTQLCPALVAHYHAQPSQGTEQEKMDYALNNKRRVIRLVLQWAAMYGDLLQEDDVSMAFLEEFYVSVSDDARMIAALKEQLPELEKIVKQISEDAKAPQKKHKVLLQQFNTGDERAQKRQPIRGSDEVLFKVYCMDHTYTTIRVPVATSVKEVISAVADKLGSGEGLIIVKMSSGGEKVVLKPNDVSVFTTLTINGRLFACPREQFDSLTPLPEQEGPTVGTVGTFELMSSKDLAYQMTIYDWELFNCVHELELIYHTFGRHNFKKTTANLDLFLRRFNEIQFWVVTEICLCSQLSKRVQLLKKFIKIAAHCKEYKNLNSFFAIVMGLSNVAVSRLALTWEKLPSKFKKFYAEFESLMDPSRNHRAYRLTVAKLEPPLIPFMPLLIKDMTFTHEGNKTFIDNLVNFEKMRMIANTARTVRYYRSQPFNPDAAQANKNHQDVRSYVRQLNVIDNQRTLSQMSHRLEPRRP

Compound	Potency
CCN(CC)c1ccc(/C=C/c2ccccn2)cc1	inconclusive: 50.1 µM [inhibitor, single point]
Cc1ccccc1-c1ccc2ncnc(N(C)C)c2c1	inconclusive: 39.8 µM [inhibitor, partial curve]
Cc1[nH]cnc1CN1CCc2c(c3ccccc3n2C)C1=O	inactive
O=C1NC(=O)c2cc(Nc3ccccc3)c(Nc3ccccc3)cc21	inconclusive: 56.2 µM [inhibitor, partial curve, poor fit]
C/C=C\C[C@@H](C)[C@@H](O)[C@H]1C(=O)N[C@@H](CC)C(=O)N(C)CC(=O)N(C)[C@@H](CC(C)C)C(=O)N[C@@H](C(C)C)C(=O)N(C)[C@@H](CC(C)C)C(=O)N[C@@H](C)C(=O)N[C@H](C)C(=O)N(C)[C@@H](CC(C)C)C(=O)N(C)[C@@H](CC(C)C)C(=O)N(C)[C@@H](C(C)C)C(=O)N1C	inconclusive: 50.1 µM [inhibitor, partial curve]
CC(=O)[C@@]1(O)[C@H](O)CC2C3CCC4CC(O)CC[C@]4(C)C3CC[C@@]21C (stereo partly specified)	inconclusive: 35.5 µM [inhibitor, full curve]
O=C1CCN(Cc2cccnc2)CCN1[C@H](CO)c1ccccc1	inconclusive: 2.82 µM [inhibitor, partial curve, poor fit]
CSC(=N)N	inconclusive: 25.1 µM [inhibitor, single point]
COc1ccccc1N1CCN(c2nc(CNC(=O)c3ccc4c(c3)OCO4)nc3ccccc23)CC1	inconclusive: 5.01 µM [inhibitor, partial curve, poor fit]
COc1cc(C)c(C(=O)Oc2cc(C)c(C(=O)O)c(O)c2C)c(OC)c1C	active: 50.1 µM
COc1cc(/C=C\c2ccc(OC)cc2OC)cc(OC)c1	inconclusive: 39.8 µM [inhibitor, partial curve]
COC(=O)c1c(C)c2c(c(C)c1O)OC(=O)c1c(C)c(Cl)c(O)c(Cl)c1O2	active: 2.82 µM and active: 2.51 µM
O=c1[nH]c2cc(Cl)ccc2c(O)c1-c1cccc(Oc2ccccc2)c1	inconclusive: 100 µM [inhibitor, partial curve, poor fit]
C[C@@H]1CCC2[C@@H](C)[C@@H](O)O[C@@H]3O[C@@]4(C)CC[C@@H]1[C@@]23OO4 (stereo partly specified)	inconclusive: 0.0282 µM [inhibitor, full curve, poor fit]
COc1cccc(-c2nccc(NCc3ccccc3)n2)c1	inconclusive: 50.1 µM [inhibitor, partial curve, poor fit]
Cc1cc(/C=C/c2ccccc2)nc2ccccc12	inconclusive: 20 µM [inhibitor, partial curve, poor fit]
Cc1ccc(C)c(OCCCC(C)(C)C(=O)O)c1	inconclusive: 17.8 µM [inhibitor, partial curve, poor fit]
C=CCN1CCc2c(cc(O)c(O)c2Cl)C(c2ccccc2)C1 (stereo unspecified)	inconclusive: 31.6 µM [inhibitor, full curve, poor fit]

Compound	Potency
CCNc1ncc2nc(C)c(=O)n(C3CC3)c2n1	inactive
CC1=C(C(=O)O)N2C(=O)[C@@H](NC(=O)C(N)C3=CCC=CC3)[C@H]2SC1 (stereo partly specified)	inconclusive: 15.8 µM [inhibitor, partial curve, poor fit]
O=C(O)c1cc(O)c2c(c1)C(=O)c1cc(O)cc(O)c1C2=O	inconclusive: 35.5 µM [inhibitor, partial curve]
CC(C)NC(=O)N1CCCC2(CCN(C(=O)c3cc(C(F)(F)F)cc(C(F)(F)F)c3)CC2)C1	inconclusive: 56.2 µM [inhibitor, partial curve, poor fit]
O=C(CCCN1CCC(O)(c2ccc(Cl)cc2)CC1)c1ccc(F)cc1	inconclusive: 89.1 µM [inhibitor, partial curve, poor fit]
COc1ccccc1C1CN(Cc2cccc(OCCO)c2)Cc2ccccc2O1 (stereo unspecified)	inconclusive: 50.1 µM [inhibitor, partial curve]
N#Cc1cccc(-c2nc(Nc3ccncc3)c3ccccc3n2)c1	inconclusive: 56.2 µM [inhibitor, partial curve]
COc1cc(C)c(CN2CCOc3ccc(C(O)c4cccnc4)cc3C2)cc1C (stereo unspecified)	inactive
O=C(c1cnsn1)N1CCOc2ccc(C(O)C(c3ccccc3)c3ccccc3)cc2C1 (stereo unspecified)	inactive
O=C(NCC1Cc2cc(F)cc(-c3cnccn3)c2O1)c1cccc(-c2ccccc2F)c1 (stereo unspecified)	inconclusive: 3.16 µM [inhibitor, full curve, poor fit]
COCCOC(=O)C1=C(C)NC(C)=C(C(=O)OC(C)C)C1c1cccc([N+](=O)[O-])c1 (stereo unspecified)	inconclusive: 44.7 µM [inhibitor, full curve] and inconclusive: 44.7 µM [inhibitor, partial curve] and inactive
COC(=O)[C@@H](N)Cc1ccc(O)c(O)c1	inconclusive: 100 µM [inhibitor, single point]
O=C(c1n[nH]c2c1CCCC2)N1CCOc2ccc(C(O)C(c3ccccc3)c3ccccc3)cc2C1 (stereo unspecified)	inconclusive: 100 µM [inhibitor, single point]
O=C(O)c1ccc(NC(=O)[C@H](Cc2ccc(O)cc2)NC(=O)c2ccccc2)cc1	inconclusive: 0.501 µM [inhibitor, full curve, poor fit]
CCc1c(C)nc2c(OC)cccc2c1Cl	inconclusive: 0.282 µM [inhibitor, full curve, poor fit]
COC(=O)[C@H]1[C@H]2C[C@@H]3c4[nH]c5ccccc5c4CCN3C[C@H]2C[C@@H](OC(=O)c2cc(OC)c(OC)c(OC)c2)[C@@H]1OC	inconclusive: 7.94 µM [inhibitor, full curve, poor fit]
C(=C\c1cccs1)/c1ccccn1	inconclusive: 0.251 µM [inhibitor, full curve, poor fit]
COCC(=O)Nc1cc(C(=O)NC2CCc3ccccc32)c2c(c1)nc(-c1ccncc1)n2C (stereo unspecified)	inconclusive: 100 µM [inhibitor, single point]
